# Among all 310,000 compounds or so, about 2,200 (0.71%) showed an effect of 50% or more. Effects have a minus sign here. This is one part of the list.
# Biological target: human ether-à-go-go-related gene (hERG) potassium channel (human, UniProt Q12809)
# Assay: primary screen, population patch clamp on CHO cells stably expressing hERG
# Chain of human ether-à-go-go-related gene (hERG) potassium channel (Q12809 whole entry, looked up): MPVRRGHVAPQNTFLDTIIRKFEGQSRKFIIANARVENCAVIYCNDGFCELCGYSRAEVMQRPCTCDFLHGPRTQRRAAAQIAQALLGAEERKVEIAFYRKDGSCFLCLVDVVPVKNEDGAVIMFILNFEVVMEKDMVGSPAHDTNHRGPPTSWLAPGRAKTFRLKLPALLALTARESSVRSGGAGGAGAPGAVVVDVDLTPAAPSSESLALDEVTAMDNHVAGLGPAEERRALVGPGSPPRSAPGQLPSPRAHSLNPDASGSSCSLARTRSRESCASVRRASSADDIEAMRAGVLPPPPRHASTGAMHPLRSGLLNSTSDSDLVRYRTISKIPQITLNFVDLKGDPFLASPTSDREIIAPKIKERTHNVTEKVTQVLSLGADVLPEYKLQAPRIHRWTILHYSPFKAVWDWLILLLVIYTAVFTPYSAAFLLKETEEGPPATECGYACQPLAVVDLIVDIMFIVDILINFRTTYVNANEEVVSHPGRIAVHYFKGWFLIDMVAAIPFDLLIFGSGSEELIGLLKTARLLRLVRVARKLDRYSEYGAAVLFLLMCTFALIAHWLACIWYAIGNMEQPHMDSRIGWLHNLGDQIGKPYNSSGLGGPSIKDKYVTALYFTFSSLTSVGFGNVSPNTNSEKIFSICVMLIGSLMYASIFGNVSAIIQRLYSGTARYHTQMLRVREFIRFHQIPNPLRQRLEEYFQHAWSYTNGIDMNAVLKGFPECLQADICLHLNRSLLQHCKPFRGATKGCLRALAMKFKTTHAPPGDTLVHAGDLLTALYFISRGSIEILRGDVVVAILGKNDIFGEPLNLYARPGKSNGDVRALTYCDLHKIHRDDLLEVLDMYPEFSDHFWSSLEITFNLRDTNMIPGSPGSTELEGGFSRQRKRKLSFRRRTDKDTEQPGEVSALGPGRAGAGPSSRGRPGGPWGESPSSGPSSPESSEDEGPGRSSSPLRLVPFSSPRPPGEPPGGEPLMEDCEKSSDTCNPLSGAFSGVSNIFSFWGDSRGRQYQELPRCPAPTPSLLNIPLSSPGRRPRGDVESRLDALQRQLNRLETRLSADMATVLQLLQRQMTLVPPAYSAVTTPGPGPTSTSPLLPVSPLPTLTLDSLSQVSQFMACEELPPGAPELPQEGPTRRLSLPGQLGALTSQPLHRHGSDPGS
row,Structure (SMILES),"hERG current change (%, negative = inhibition) at 1uM [%]"
1,O=C(NCC1CCCO1)c1cccc(S(=O)(=O)N(Cc2ccccc2)c2ccccc2)c1 (stereo not shown),-14.7
2,CCS(=O)(=O)Nc1ccc(C(=O)OC)cc1,9.25
3,Cc1nn(C)c(C)c1CNC(=O)Nc1cccc(Cl)c1,8.61
4,COc1cc(/C=N/n2c(C3CCCCC3)n[nH]c2=S)ccc1O,10.2
5,CNC(=O)Nc1cc(C)nn1C,16.1
6,CCn1cc(C(=O)O)c(=O)c2cc(F)c(N3CCN(C(=S)NC(=O)c4cc(OC)cc(OC)c4)CC3)cc21,18.5
7,Cc1ccc(S(=O)(=O)N2CCCC2CNC(=O)C(=O)Nc2ccc(F)cc2)cc1 (stereo not shown),-9.62
8,Cc1ccc(NC(=O)Nc2cc(-c3ccccc3)nn2C)cc1Cl,10.5
9,COc1ccc(C(=O)CSc2nnc(CNC(=O)c3ccc(OC)c(OC)c3)n2C)cc1,3.74
10,c1ccc2c3nnc4n(c-3nc2c1)CCCS4,7.79
11,O=C(N/N=C/c1ccccn1)c1ccc(Cl)cc1,11.4
12,CCCOc1ccc(-c2nnn(CC(=O)Nc3cccc(C(=O)OC)c3)n2)cc1,-0.984
13,CC(=O)Nc1cccc(NC(=O)Nc2cccc(Cl)c2C)c1,17.5
14,COc1cc(OC)c2c(-c3ccccc3)cc(=O)oc2c1C(CC(=O)N1CCOCC1)c1ccc(N(C)C)cc1 (stereo not shown),10.7
15,CC(=O)N(CN1C(=O)c2ccccc2C1=O)c1ccccc1,10.1
16,COc1ccc(-n2nnnc2SCC(=O)N2CCCC2)cc1OC,12.3
17,Cc1nnc2ccc(N3CCCCC3)nn12,11
18,O=C(O)c1ccccc1C(=O)NCC(O)COc1ccc(Cl)cc1 (stereo not shown),12.4
19,Cc1nc2sccn2c(=O)c1CCN1CCC(=C(c2ccc(F)cc2)c2ccc(F)cc2)CC1,-65
20,Cc1ccc2nc(-c3sc4nc(C)ccc4c3N)[nH]c2c1,16.2

row,Structure (SMILES),"hERG current change (%, negative = inhibition) at 1uM [%]"
1,COc1ccc2c(c1)c(CCNNC(=O)C(C)(C)C)c(C)n2C(=O)c1ccc(Cl)cc1,4.7
2,CCC(=O)N/N=C(\C)CC(=O)Nc1ccc(Cl)cc1,8.49
3,CC(=O)c1cccc(NC(=O)C2CCCCC2)c1,10.2
4,Cc1noc(/C=C/c2ccco2)c1S(=O)(=O)N1CCC(C(=O)NC(C)c2ccccc2)CC1 (stereo not shown),13.9
5,CCc1cc2c(=O)c(-c3ccc4c(c3)OCCO4)coc2cc1OS(C)(=O)=O,14.3
6,O=C(Cn1c(=O)oc2ccccc21)Nc1nc(-c2ccccc2)cs1,13.1
7,CC(C)C(=O)NCc1cc(-c2ccccc2)no1,12.8
8,CN(C)CCCNCCCNC(=O)c1ccccn1,-3.37
9,CCC(=O)Nc1ccc2c(c1)nc1n2CCSC1,9.43
10,C/C(=N\NC(=O)C1CC1)c1ccc(N2CCOCC2)cc1,8.17
11,Cc1ccc(Cn2ccc(NC(=O)c3c(-c4ccccc4Cl)noc3C)n2)cc1,3.45
12,CCOc1ccc(C(=O)NCCCN(CC)CC)cc1,-18.8
13,COc1ccc(NC(=O)c2cccc(S(=O)(=O)NCc3ccccc3)c2)cc1S(N)(=O)=O,-1.47
14,COc1ccc(-c2nnnn2C)cc1S(=O)(=O)Nc1ccc(C)cc1C,6.72
15,CC1(C(=O)NC2CCCCCCC2)CCC(=O)N1Cc1cccs1 (stereo not shown),-8.46
16,C=CCOc1ccc(C2c3c(oc4ccccc4c3=O)C(=O)N2CCCN2CCOCC2)cc1 (stereo not shown),-6.32
17,CCOP(=O)(OCC)C(NC(=O)C(C)C)C(Cl)(Cl)Cl (stereo not shown),4.89
18,COc1ccc(CNC(=O)COC(=O)c2ccc(Br)o2)cc1,12.6
19,COc1ccc(S(=O)(=O)Nc2ccccc2-c2nc3ccccc3[nH]c2=O)cc1,7.5
20,COc1ccc(CNC(=O)CCn2c(=O)c3cccn3c3ccc(F)cc32)cc1,0.0738

row,Structure (SMILES),"hERG current change (%, negative = inhibition) at 1uM [%]"
1,Oc1ccc(NC(=S)Nc2ccccc2)cc1,14.5
2,CCOc1ncccc1C(=O)OCC(=O)N1c2ccccc2CC1C (stereo not shown),-4.59
3,COc1ccc(C(=O)NC(Nc2ccc(C)cc2)C(Cl)(Cl)Cl)cc1 (stereo not shown),8.56
4,O=C(CN1CCN(Cc2ccccc2)CC1)Nc1ccc(Br)cc1,-48.3
5,COC(=O)Cc1csc(/N=C/c2c(O)n(-c3cccc(C(F)(F)F)c3)c(=O)c3ccccc23)n1,14.8
6,Cc1cccc(C)c1NC(=O)C1(NC(=O)Cn2cccc([N+](=O)[O-])c2=O)CCCCC1,13.5
7,CCOc1ccccc1OCCC(=O)NNC(=O)Cn1nc(C)cc1C,1.53
8,Cc1ccnc(N2CCC(C(=O)Nc3cccc(C(F)(F)F)c3)CC2)n1,5.54
9,Cl.O=S(=O)(CCc1ccncc1)c1ccc(Cl)cc1,6.95
10,COc1ccc(C)cc1NC(=O)CO/N=C(\N)CC(=O)NC1CCCCC1,3.39
11,CSCCC(NC(=O)c1ccc(Cl)cc1Cl)C(=O)NCc1ccccn1 (stereo not shown),5.25
12,CCNC(=O)/C=C/c1ccccc1[N+](=O)[O-],11.2
13,c1cncc(-c2noc(C34CC5CC(CC(C5)C3)C4)n2)c1,13.4
14,COC(=O)c1cccc(S(=O)(=O)N2CCC(NC(=O)NC34CC5CC(CC(C5)C3)C4)CC2)c1,12.6
15,CCN(CC)c1ccc(C(=O)NNC(=O)CNC(=O)c2cccs2)cc1,4.97
16,O=C(COc1ccc(Br)cc1)NCC1COc2ccccc2O1 (stereo not shown),8.57
17,CCOCCCNC(=O)C1c2cc(OC)c(OC)cc2C(=O)N2CCCCC12 (stereo not shown),4.39
18,COC(=O)c1sccc1NC(=O)c1cnc2cc(C)nn2c1C,3.08
